In PubChem BioAssay AID485297 (National Center for Advancing Translational Sciences (NCATS), 2010):
Among all 320,000 compounds or so, about 9,100 (2.8%) were called active. Inconclusive results, whose numbers are uncertain, are shown with a selection of clear calls. The call rests on the fitted dose curve; in most records, active means well fitted activation curve with a large enough effect; inconclusive means small, poorly fitted or top-dose-only effect; inactive means no such curve, though single readings can be large or run the other way. No potency is given beside an inconclusive call; the fits are too rough.

Assay: qHTS Assay for Rab9 Promoter Activators; further: nearly all actives have a fitted effect of over 60% in size
Settings: Huh7 Rab9 promoter-luciferase reporter, luminescence, 24 h; series mostly up to 9.22 µM
Text: NIH Chemical Genomics Center [NCGC] NIH Molecular Libraries Probe Production centers Network [MLPCN] MLPCN Grant: MH089537-01 Assay Submitter (PI): Yiannis A. Ioannou NCGC Assay Overview: Niemann Pick Type C (NPC) is a rare neurodegenerative lipidosis that is characterized by lipid storage in the endosomal/lysosomal system. Treatment modalities for this devastating disease are currently non-existent due to the severe obstacles associated with accessing the central nervous system with proteins or genes (Ioannou, 2000). We have developed a new paradigm, termed "Orphan Receptor Bypass Therapy" (ORByT), to address these disorders. This paradigm posits the existence of endogenous "suppressor" proteins whose expression can dramatically improve LSD pathogenesis. The goal is the identification/discovery of small chemical compounds that can modulate the expression of these proteins and provide a new treatment modality for these devastating disorders. One such protein whose overexpression reverses aspects of the NPC phenotype is Rab9. We have developed and optimized a cell based luciferase reporter assay in 1536 well format for the identification of up-regulators of the Rab9 promoter.
The Rab9 promoter is cloned in front of the luciferase reporter gene, therefore […] promoter activation results in luciferase expression. Frozen stock of the Rab9 promoter transfected Huh7 cells were obtained from the laboratory of Dr. Yiannis Ioannou (The Mount Sinai School of Medicine, New York, NY). Cells were propagated and maintained at NCGC in medium containing RPMI-1640 supplemented with 10% FBS, 2mM L-glutamine, and 50ug/ml penicillin/streptomycin. Cells were harvested in and plated for assays in OP-MEM I reduced-serum medium supplemented with 10% FBS. The Amplite luciferase reporter gene assay kit was purchased from ABD Bioquest and prepared/stored according to manufacturers recommendations. qHTS Assay Setup: 1.Dispensed 5ul of Huh7 cells stably expressing Rab9-luciferase at a density of 1500 cells per well 1536-well plates. 2.Incubate cells at 37C, 5% CO2, and 95% humidity for 2 hours. 3.Transferred 23nl per well of compound in DMSO solution. 4.Incubated at 37C, 5% CO2, and 95% humidity for 24 hours. 5.Dispensed 3ul per well of Amplite reagent(ABD Bioquest) per well. 6.Incubate at ambient for 10 minutes. 7.Read using the luminescence protocol on the ViewLux plate reader (Perkin Elmer).
Potency means the concentration at half of the fitted maximal effect; tags describe the fitted curve by direction and shape.

Compound	Potency
CN(CC(=O)Nc1ccc(Cl)cc1)CC(=O)Nc1cccc2ccccc12	inactive
COc1ccc(Cn2c(C3CC3)nc3ccc(NC(C)=O)cc3c2=O)cc1	active: 1580 nM
N#Cc1c(NC(=S)NC(=O)c2ccccc2)sc2c1CCCC2	inconclusive [activator, single point]
C=CCOc1ccc(/C=C/C(=O)Nc2ccc(C(=O)NC)cc2)cc1	inactive
Cc1ccsc1C(=O)OCC(=O)NC1CCCCC1C (stereo not drawn)	inactive
CC1CCC(NC(=O)Cn2cc3c(n2)CCCC3)CC1 (stereo not drawn)	inconclusive [activator, partial curve]
O=C(c1cccs1)C1C(c2ccc(Br)cc2)NC(=S)NC1(O)C(F)(F)F (stereo not drawn)	inconclusive [activator, single point]
CCNc1nc(-c2ccc(OC(F)F)cc2)c(C)s1	inconclusive [activator, single point]
COC(=O)Cc1ccc(OCC(=O)NC2CCCC2)cc1	inactive
COc1ccccc1-n1cnnc1SCC(=O)Nc1cc(C(C)(C)C)nn1-c1ccccc1	inactive
Cc1cc(C)c(C#N)c(SCc2nc3ccccc3c(=O)[nH]2)n1	inconclusive [activator, full curve]
O=C(Nc1ccc2[nH]c(=S)sc2c1)c1ccccc1	inconclusive [activator, partial curve]
COc1ccc2c(C)cc(SCn3nnc4ccccc4c3=O)nc2c1	inactive
O=C(Nc1cccc(Cl)c1)c1ccc2c(=O)n3c(nc2c1)CCCCC3	active: 891 nM
CC(C)(C)c1ccc(C(=O)Nc2cccc(S(=O)(=O)NC3=NCCC3)c2)cc1	inconclusive [activator, full curve]
COc1ccc(OCC(=O)Nc2nccs2)cc1	active: 447 nM
O=C(NC(=S)Nc1ccccc1)c1cccs1	inconclusive [activator, partial curve]
Cc1c(C(=O)Nc2cccc3cccnc23)oc2ccccc12	inconclusive [activator, partial curve]
CCOC(=O)Nc1ccc(Oc2ccccc2)cc1	inconclusive [activator, partial curve]
CCOC(=O)C1(Cc2ccccc2)CCCN(C(=O)C=C(C)C)C1 (stereo not drawn)	active: 3550 nM
Nc1ccc(C(=O)OCCc2ccccc2)cc1	active: 3160 nM
COc1ccccc1-c1nc(-c2ccc(Br)cc2)no1	active: 5010 nM
COc1c(C(=O)Nc2ccc3[nH]c(=O)[nH]c3c2)cc2ccccc2c1Br	inactive
COc1ccc2cc(C(=O)N(C)CC(=O)Nc3ccccc3Br)ccc2c1	inactive
CCN(CC)S(=O)(=O)c1ccc(Cl)c(NC(=O)COC(=O)c2ccc(O)cc2)c1	inconclusive [activator, single point]
COc1ccc(C2Nc3ccccc3C(=O)N2c2ccc(C)cc2)cc1Cn1nnc2ccccc21 (stereo not drawn)	inconclusive [activator, partial curve]
Oc1cccc(Oc2ncc(C(F)(F)F)cc2Cl)c1	inconclusive [activator, single point]

Compound	Potency
O=C(NC1=NCCS1)c1ccc(-c2ccc(Cl)cc2)o1	active: 2000 nM
O=C(N/N=C/c1ccc(Cl)cc1)Nc1ccccc1	inconclusive [activator, partial curve]
CCc1c(C)nc2cc(-c3cccc(Br)c3)[nH]n2c1=O	inconclusive [activator, single point]
COCCn1c(C)cc(C(=O)CSc2ccc(NC(C)=O)cc2)c1C	active: 2000 nM
O=C(c1cc(COc2c(F)cccc2F)on1)N1CCCCCC1	active: 2820 nM
CCOC(=O)c1c(C)[nH]c(C(=O)OCC(=O)Nc2cc(Cl)ccc2OC)c1C	inactive
COc1ccccc1Nc1nc(-c2cccnc2)cs1	inconclusive [activator, partial curve]
CC(=O)Nc1ccc(C(=O)COC(=O)C2CC2C)c(F)c1 (stereo not drawn)	active: 1410 nM
COc1ccc(N2CCN(C(C)C(=O)Nc3nnc(C)s3)CC2)cc1 (stereo not drawn)	inactive
O=C(Nc1ccc2nsnc2c1)N1CCCCCC1	inconclusive [activator, single point]
CCCC(C)NC(=O)c1ccc(OCc2ccc(Cl)cc2)c(OC)c1 (stereo not drawn)	inconclusive [activator, single point]
c1ccc(N/N=C(\Cc2nc3ccccc3[nH]2)c2ccccc2)cc1	inactive
O=S(=O)(NCCC1=CCCCC1)c1ccccc1Cl	inactive
O=C(CSc1nnc(-c2cccnc2)o1)Nc1ccccc1F	active: 3160 nM
O=C(NCC1(O)CCCCC1)C1CCC(=O)N(Cc2ccccc2F)C1 (stereo not drawn)	inactive
COc1ccc(OC)c(S(=O)(=O)N2CCN(CC(O)COc3ccc(C#N)cc3)CC2)c1 (stereo not drawn)	inactive
N#C/C(=C\c1ccc[nH]1)C(=O)Nc1ccccc1F	active: 501 nM
COCCNC(=S)NCCc1ccc(Cl)cc1Cl	inactive
CN(Cc1ccco1)C(=O)c1ccc(CNS(=O)(=O)c2ccc3c(c2)C(C)(C)C(=O)N3C)cc1	inactive
Cn1cc([N+](=O)[O-])c(C(=O)Nc2nc(-c3ccc(Cl)cc3)cs2)n1	inactive
Cc1ccc(C(=O)Nc2nnc(S(=O)(=O)N3CCOCC3)s2)cc1	inconclusive [activator, single point]
O=C(NCc1ccc2c(c1)OCO2)c1ccc(N2CCCCCC2)c([N+](=O)[O-])c1	inactive
O=C(Nc1ccc(Nc2ccccc2)cc1)c1ccccc1F	inconclusive [activator, partial curve]
C=CCN=c1scc(-c2ccco2)n1/N=C/c1ccc(O)c(O)c1O	inconclusive [activator, single point]
O=C(Nc1cccc(C(=O)Nc2ccc(Br)cc2)c1)c1ccccc1	inconclusive [activator, partial curve]
COc1cc(O)c(C(CC(=O)N2CCN(c3ccccc3)CC2)c2ccc3c(c2)OCO3)c(OC)c1 (stereo not drawn)	inactive
